Data on 57 molecules can be found in ChEMBL document CHEMBL1157539, “Thousands of chemical starting points for antimalarial lead identification” (Nature, 2010).

SMILES strings stand for the structures. Values joined by “and” are separate entries in the source; they are usually repeats but may differ in a detail not shown here. Equal entries are not always repeated. Whole data set: some 13,000 compounds, median “IFI” near 4, cut for the highest 2% near 17. This is one part of the list.

The nature of this assay: GSK_TCMDC: Inhibition Frequency Index (IFI). The number of non-kinase HTS assays where a compound showed > 50 % inhibition, expressed as a percentage of the number of such assays in which the compound was tested (-0 is zero). It counts as functional.
Consider `COc1ccc(CN2CCC(NCc3cccc(C(F)(F)F)c3)CC2)cc1`, for which the IFI worked out at 2.67%. With `COc1ccc(NC(=O)Nc2nc(-c3ccc(Cl)c(C)c3)cs2)cc1N1CCN(C)CC1` the figure was 6.34%. Consider `c1ccc(Oc2ccc(Nc3ccnc(Nc4ccc5cn[nH]c5c4)n3)cc2)cc1`, for which the IFI stood at 2.92%. With `O=C(/C=C/c1ccccc1O)N1CCC(CCN2CCC(c3c[nH]c4ccccc34)CC2)CC1` the figure was 2.9%; with `Cn1c(Nc2cc(C(C)(C)C)on2)nc2cc(Nc3ccnc(Nc4cccc(S(=O)(=O)N5CCOCC5)c4)n3)ccc21`, 5.3%; with `COc1cc(NC(=O)c2ccc(-c3ccc(C(C)=O)cc3)s2)ccc1OCCN1CCCC1`, 5.94%.

In turn, `Cc1ccc(NC(=O)Nc2ccc(Cl)c(C(F)(F)F)c2)cc1-c1ccc(C(=O)Nc2ccncc2)cc1` came in with an IFI of 18.3%. With `COCCN(CCOC)c1ncc(-c2ccsc2)c(-c2nc(C)c(C)s2)n1` the figure was 2.3%; with `NC(=O)c1cccc(Nc2nccc(Nc3ccc4[nH]c(-c5ccccc5)cc4c3)n2)c1`, 7.52%; with `CC(C)Cn1cc(C2CCN(CCN3CCC(CNC(=O)c4ccc(-c5ccc(C(F)(F)F)cc5)cc4)CC3)CC2)c2ccccc21`, 9.17%.

With `NC1CCN(Cc2ccc(-c3cccc(-c4nc5ccccc5[nH]4)c3)cc2)C1` (configuration not stated), the IFI was found to be 2.82%. `CCOc1c(CNCCCCCCNCc2ccc3ccccc3c2OCC)ccc2ccccc12` displayed an IFI of 22%. With `Clc1ccc(Nc2nc3nonc3nc2Nc2ccc(Cl)c(Cl)c2)cc1` the figure was 19.4%; with `O=C1Nc2cccc3c2C1(CCCCN1CCC(c2cc4ccncc4[nH]2)CC1)CCC3` (configuration not stated), 1.45% and 2.82%. In the case of `CCCCNC(=O)[C@@H](NC(=O)c1ccc(O)c(-c2ccc(Cl)c(Cl)c2)c1)C(C)C` it was 2.96%. With `Cc1ccc(NC(=O)c2ccc(NCCCN3CC(C)CC(C)C3)c([N+](=O)[O-])c2)cc1F` (configuration not stated) the figure was 2.21%. Regarding `c1ccc(CCNc2ncnc3c2[nH]c2ccccc23)cc1`, the IFI amounted to 23.9%. In the case of `O=C(NCCCNc1ccnc2cc(Cl)ccc12)c1ccccc1F` it was 1.45%; in that of `COc1ccc(N2CCN(CCCCNC(=O)c3ccc(NC(=O)c4cc(C(F)(F)F)cc(C(F)(F)F)c4)cc3)CC2)cc1OC`, 3.51%. With `CCN(C(=O)NC)C1c2cc(C#N)ccc2OC(C)(C)C1O` (configuration not stated) the figure was 0.71%; with `Cc1ccccc1N1CCN(c2ncc(C(=O)NC3CC3)cc2Cl)CC1`, 6.25%; with `CN(C)c1ccc(NC(=O)Nc2ccnc3ccc(Br)cc23)cc1`, 4.44%.

For `CCCNCc1c(O)ccc2c(CNCCC)c(O)ccc12`, the IFI was 2.94%.

`COc1ccc(C(=O)Nc2ccc3nc(N4CCCCC4)cc(C)c3c2)cc1OC` displayed an IFI of 5.66%. In the case of `COc1ccc2ncc(C#N)c(CCN3CCC(NCc4ccc5c(c4)OCCO5)CC3)c2c1` it was 2.88%; in that of `Cc1cccc2nc(-c3ccc(-c4cccc(CN5CCCC5CN)c4)cc3)[nH]c12` (configuration not stated), 5%.

For `CCC(C)c1ccc(Nc2nc(C)cc(N(CC)CCCN3CCCCC3)n2)cc1` (configuration not stated), the IFI is 19.5%. Molecule `O=C(/C=C/c1ccc(Cl)c(Cl)c1)NCCCCCN1CCCN(C(=S)Nc2cccc(Cl)c2)CC1` registered an IFI of 4.72%. `Oc1ccc(CC2CCCN(c3nc(NCCCOc4ccccc4-c4ccccc4)nc(N4CCNCC4)n3)C2)cc1` (configuration not stated) displayed an IFI of 16.4%. `O=C(N[C@@H](Cc1ccccc1)[C@H](O)CNCCC(F)(F)F)c1cccc(OCC2CC2)c1` had an IFI of 6.1%. In the case of `CC(C)CNCc1cccc(-c2cccc(CN(CCCN3CCN(C)CC3)C(=O)NC3CCCCC3)c2)c1` it was 3.88%. In the case of `COc1cc(C(=O)NCCCN2CCN(c3cccc(Cl)c3)CC2)ccc1-c1cc2cc(Cl)c(Cl)cc2[nH]1` it was 2.96%; in that of `CCNc1cc(C(=O)N[C@@H](Cc2ccccc2)[C@H](O)CNC2CC3CCC2C3)cc(N2CCCCS2(=O)=O)c1` (some centres not stated), -0%. In the case of `COc1ccc(-c2ccc(NC(=O)c3ccc(C#N)cc3)cc2)cc1CN1CCN(C)CC1` it was 2.67%. The molecule `Cc1cc(-c2ccc(S(=O)(=O)Nc3cc4c(cc3OC(C)C)CCN(C)CC4)cc2)ccc1Cl` registered an IFI of 11.3%. In the case of `Cc1ccoc1C(=O)Nc1cccc(-c2cccc(-c3nc4ccccc4[nH]3)c2)c1` it was 3.7%; in that of `CCN(CC)CCCC(C)N=c1cc(C=Cc2ccc([N+](=O)[O-])cc2)[nH]c2ccc(OC)cc12` (configuration not stated), 1.65%; in that of `COc1ccccc1CCN1CCC(CN(C)Cc2ccc(O)c(Cl)c2)CC1`, 2.5%. With `CCCc1cc(C)ccc1OCCCON1C(NC(=O)OCC)=NC(NC(=O)OCC)=NC1(C)C` the figure was 3.52%.

In the case of `O=C(Nc1ccc(-c2ccccc2)cc1)Nc1cccc(OCCN2CCCC2)c1`, the IFI came to 1.45%. In the case of `Cc1cc(CN2CC[C@H](NC(=O)c3ccc(Cl)c(Cl)c3)C2)ccc1OC1CCN(C)C1` (some centres not stated) it was 8%; in that of `Cc1cc(O)nc(NC(=N)NOCc2ccccc2)n1`, 0.73%. With `O=C(Nc1ccc(S(=O)(=O)N2CCCCC2)cc1)c1cc(-c2cc(Cl)ccc2O)n[nH]1`, the IFI is 4.76%. The molecule `O=C(/C=C/c1ccc(C(F)(F)F)cc1)NCCCCCN1CCCN(C(=O)Nc2ccc(F)c(Cl)c2)CC1` came in with an IFI of 10.9%.

Take `CCn1ccc2c(N3CCCS3(=O)=O)cc(C(=O)N[C@@H](Cc3ccccc3)[C@H](O)CNC(C)(C)c3cccc(OC)c3)cc21`: the IFI was 5.07%. With `CC(=O)Oc1c(C2CCN(CCCCNC(=O)c3ccc(NC(=O)c4ccc(Cl)cc4)cc3)CC2)ccc2ccccc12` the figure was 5.61%; with `CCCCNC(=N)c1ccc(OCCCCCOc2ccc(C(=N)NCCCC)cc2)cc1`, 2.26%; with `CC(C)(C)c1ccc(CNC(=O)c2ccc(-c3nc4ccc(Cl)cc4[nH]3)cc2)cc1`, 0.73%. `CN(c1ccc2c(c1)nc(NCc1ccccc1)n2C)c1ccnc(Nc2ccc(CS(C)(=O)=O)cc2)n1` registered an IFI of 5.19%.

`O=C(Cc1ccc(NC(=O)c2ccc(O)c(-c3ccc(Cl)c(Cl)c3)c2)cc1)NCCc1ccc(Cl)c(Cl)c1`: the IFI was 2.22%. The molecule `Cc1ccccc1CN1CCCN(Cc2ccc(C(=O)Nc3ccc(Cl)cc3)cc2)CC1` gave an IFI of 10.2%. With `CN(C)c1ccc(-c2ccc(C(=O)NC3CCN(Cc4ccc5c(c4)OCCO5)CC3)s2)cc1`, the IFI is 15.5%. In the case of `Cc1cc(N)ncc1-c1ccc(NC(=O)Nc2cc(C(F)(F)F)ccc2F)cc1` it was 6.67%; in that of `Cc1cc(OCc2ccncc2)cc2c1C(=O)CC(C)(C)O2`, 2.82%. `CCCNCc1ccc(-c2ccc(CN(CCOC)C(=O)Cc3cccnc3)cc2)nc1` gave an IFI of 0.7%. With `O=S(=O)(NC1CCN(c2ccnc3ccccc23)C1)c1ccc(OC(F)(F)F)cc1` (configuration not stated) the figure was 4.69%; with `CC(Cc1ccc(OCCN2CCN(c3cccc(C(F)(F)F)c3)CC2)cc1)NCC(O)c1cccc(C(F)(F)F)c1` (configuration not stated), 10.8%.
